Laboratory results from the supplement of paper PMC7826260.
The other results are listed elsewhere or left out. The data describe in vitro nicking of single-stranded DNA by Rep domains (3 µM enzyme, 1 h, 37 °C); shown is the middle of each 90-letter strand. The score is log2 (uncut reads / reads without enzyme); strong cutting gives strongly negative numbers. There is no active / inactive call. Shares of all reads are compared, so uncut sequences can rise above 0 when many others are cut.

Key:
Assay in all cases: uncleaved DNA left, log2 of reads against the no-enzyme library (log2 ratio); higher = less cleavage (more negative = more Rep cleavage of the k-mer); sequences stand for … in CTCGTCCG…ACCGGAGA
[1] = system: T1, Rep nickase domain of Muscovy duck circovirus
T1 sequence (residues 1-111, tag not shown): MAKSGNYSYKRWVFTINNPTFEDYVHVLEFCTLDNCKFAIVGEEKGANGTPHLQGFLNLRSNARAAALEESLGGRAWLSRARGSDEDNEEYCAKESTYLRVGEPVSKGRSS
Protocol: (§1)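 A pool of 90-nt single-stranded DNAs with seven random bases just before the constant AC of the nick site (name = the seven bases) was cut by 3 µM recombinant His6-SUMO-tagged Rep nickase domain (300 nM DNA, 50 mM HEPES pH 8.0, 50 mM NaCl, 1 mM MnCl2, 1 h, 37 °C, three replicates). Uncut DNA was amplified and sequenced.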

[2] = system: T2, Rep nickase domain of banana bunchy top virus
T2 sequence (residues 1-94, tag not shown): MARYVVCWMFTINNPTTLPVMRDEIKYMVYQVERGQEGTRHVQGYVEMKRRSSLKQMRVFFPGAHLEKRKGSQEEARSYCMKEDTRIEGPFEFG
Protocol: as §1

[3] = system: T3, Rep nickase domain of cabbage leaf curl virus
T3 sequence (residues 1-116, tag not shown): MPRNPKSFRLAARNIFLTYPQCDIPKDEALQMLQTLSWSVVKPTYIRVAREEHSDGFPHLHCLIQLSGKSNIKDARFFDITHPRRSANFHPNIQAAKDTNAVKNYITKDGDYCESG
Protocol: as §1

[4] = system: T4, Rep nickase domain of chickpea chlorotic dwarf virus
T4 sequence (residues 1-124, tag not shown): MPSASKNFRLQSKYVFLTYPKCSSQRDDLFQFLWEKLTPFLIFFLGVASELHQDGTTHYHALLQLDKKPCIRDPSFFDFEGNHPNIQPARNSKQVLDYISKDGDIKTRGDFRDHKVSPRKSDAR
Protocol: as §1

[5] = system: T5, Rep nickase domain of faba bean necrotic yellows virus
T5 sequence (residues 1-98, tag not shown): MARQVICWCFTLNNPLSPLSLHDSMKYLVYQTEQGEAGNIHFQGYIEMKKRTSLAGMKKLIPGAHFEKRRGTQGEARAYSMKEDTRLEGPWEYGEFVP
Protocol: as §1

[6] = system: T6, Rep nickase domain of maize striate mosaic virus
T6 sequence (residues 1-117, tag not shown): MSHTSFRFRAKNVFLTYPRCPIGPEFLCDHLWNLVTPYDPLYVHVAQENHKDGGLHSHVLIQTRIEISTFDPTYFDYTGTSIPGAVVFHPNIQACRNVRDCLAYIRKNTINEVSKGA
Protocol: as §1

[7] = system: T7, Rep nickase domain of porcine circovirus 2
T7 sequence (residues 2-116, tag not shown): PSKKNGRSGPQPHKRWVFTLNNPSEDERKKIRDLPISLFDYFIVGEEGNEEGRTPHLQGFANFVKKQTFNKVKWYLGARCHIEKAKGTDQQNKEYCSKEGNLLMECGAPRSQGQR
Protocol: as §1

[8] = system: T8, Rep nickase domain of tomato yellow leaf curl virus
T8 sequence (residues 1-136, tag not shown): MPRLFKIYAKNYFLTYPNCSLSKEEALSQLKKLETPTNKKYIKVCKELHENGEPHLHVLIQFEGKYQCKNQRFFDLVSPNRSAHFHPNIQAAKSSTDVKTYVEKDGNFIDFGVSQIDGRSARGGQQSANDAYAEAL
Protocol: as §1

[9] = system: T9, Rep nickase domain of wheat dwarf virus
T9 sequence (residues 1-137, tag not shown): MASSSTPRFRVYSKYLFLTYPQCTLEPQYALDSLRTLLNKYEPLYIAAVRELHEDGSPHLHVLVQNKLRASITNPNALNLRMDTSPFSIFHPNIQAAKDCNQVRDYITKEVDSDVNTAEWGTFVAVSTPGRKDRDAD
Protocol: as §1

Sequence | uncleaved DNA left (log2) [1] | uncleaved DNA left (log2) [2] | uncleaved DNA left (log2) [3] | uncleaved DNA left (log2) [4] | uncleaved DNA left (log2) [5] | uncleaved DNA left (log2) [6] | uncleaved DNA left (log2) [7] | uncleaved DNA left (log2) [8] | uncleaved DNA left (log2) [9]
AGACGCA | 0.0398 | -0.0385 | 0.206 | -0.27 | -0.0254 | 1.02 | -0.000196 | -0.0814 | -0.0325
TGTTGTT | -2.89 | -0.932 | -0.397 | -1.92 | -0.132 | -0.42 | -3.22 | 0.0275 | -0.704
ATCAGGG | -0.0204 | 0.0427 | -0.371 | -0.248 | 0.0486 | -0.922 | 0.158 | -0.0722 | -0.115
GGATATG | 0.0565 | -0.0787 | 0.696 | 1.52 | -0.0834 | 1.77 | 0.239 | 0.0637 | 0.12
CGGCTTT | -0.0542 | -0.275 | 0.0454 | -0.368 | -0.253 | 0.663 | -0.26 | -0.246 | -0.0715
GCAAGCA | 0.0247 | 0.11 | -0.0923 | 0.0584 | 0.147 | -0.267 | 0.156 | 0.0466 | 0.043
GGCGAGG | 0.0453 | -0.0366 | 0.161 | 0.71 | 0.016 | 1.63 | 0.163 | -0.106 | 0.0471
GGGATCT | 0.0117 | -0.0141 | 0.83 | 1.93 | -0.134 | 2.19 | 0.171 | -0.0616 | 0.0974
CGGTCTC | -0.0158 | -0.106 | 0.152 | 0.318 | -0.203 | 0.774 | -0.0391 | -0.12 | -0.116
CAGCGTA | -0.045 | -0.147 | -0.48 | -1.14 | -0.0645 | -0.918 | -0.204 | 0.0728 | -0.114
GCGAAAC | 0.0474 | 0.179 | 0.236 | 0.438 | 0.102 | 0.1 | 0.204 | 0.204 | 0.162
ATACTGA | 0.0661 | 0.0466 | 0.0293 | 0.281 | 0.0579 | 0.477 | 0.121 | -0.0893 | 0.0839
GGCCGAC | 0.0559 | 0.0099 | 0.625 | 1.59 | 0.0132 | 1.77 | 0.222 | 0.0995 | 0.0857
ACCGTCT | -0.0911 | -0.151 | -0.456 | -1.92 | -0.0411 | -1.01 | -0.0734 | -0.202 | -0.289
TTTAGTC | -0.0143 | 0.0539 | 0.154 | -0.0662 | -0.0288 | -0.701 | 0.00392 | -0.0226 | 0.0264
GTAAAAT | -0.00988 | 0.0382 | 0.268 | 0.811 | 0.0919 | 1.79 | 0.172 | 0.0995 | 0.133
AGCTGTT | -0.593 | -0.082 | -0.381 | 0.188 | -0.0224 | 1.33 | -3.15 | -0.237 | -0.208
TAGTTAA | 0.0472 | 0.0291 | 0.0644 | -0.666 | 0.0227 | -0.156 | -2.66 | 0.000173 | 0.0514
TTTACCA | 0.0212 | 0.0483 | 0.0742 | -2.05 | -0.1 | 0.428 | -0.498 | 0.0662 | 0.133
GCTTGAT | 0.0245 | -0.0912 | 0.154 | 0.512 | 0.0946 | 0.495 | -0.84 | 0.0622 | 0.0255
TCGGAGG | 0.269 | 0.127 | 0.612 | 1.11 | 0.179 | 1.08 | 0.305 | 0.115 | 0.0885
ATGCTAT | -0.153 | -0.179 | -0.203 | -0.595 | -0.061 | -0.571 | -0.269 | -0.107 | -0.13
TGGACTC | 0.00436 | 0.11 | 0.824 | 1.83 | -0.129 | 2.19 | 0.0566 | 0.0512 | 0.197
CTCGTGT | 0.0144 | -0.138 | -0.329 | -0.672 | -0.103 | -1 | -0.0864 | -0.0373 | -0.0406
GAGCACG | 0.00541 | 0.0101 | -0.335 | -0.104 | -0.0567 | -0.292 | 0.0306 | -0.117 | 0.0473
TAGCGAT | 0.117 | 0.0285 | -0.042 | 0.426 | -0.00744 | 0.539 | -1.19 | 0.0213 | -0.0128
GGTTCGG | 0.0556 | 0.096 | 0.553 | 1.36 | 0.0561 | 1.82 | 0.188 | 0.044 | 0.0547
TCTATGT | 0.0216 | -0.0401 | -0.0365 | -0.199 | -0.158 | -0.543 | -0.34 | -0.152 | -0.0888
GCCCATG | 0.0835 | -0.037 | -0.37 | -0.0272 | -0.0431 | -0.676 | 0.0349 | -0.186 | 0.078
AGTCTCT | 0.0334 | -0.0346 | 0.117 | -1.24 | -0.122 | 0.313 | -3.15 | 0.0256 | -0.0533
